According to the supplement of paper PMC4967469:
A lower IC50 marks a more sensitive line; fits outside the tested doses are given as limits. AUC, from the same fit, is the share of area under the viability curve across the 256-fold dose range; the more sensitive the line, the further below 1. For part of these data: Where the top dose is marked as inferred, it is not printed in the source and was worked back from the curve model. For part of these data: Drugs with an entry number were screened twice under separate entries, and the two screens often disagree.

Key:
Experiment in all cases: Viability of human cancer cell lines after 72 h of drug (GDSC screen)
Thapsigargin = compound: C/C=C(/C)C(=O)O[C@H]1C(C)=C2[C@H]([C@@H]1OC(=O)CCCCCCC)[C@@](C)(OC(C)=O)C[C@H](OC(=O)CCC)[C@@]1(O)[C@H]2OC(=O)[C@@]1(C)O [Thapsigargin]; conditions: top dose 0.512 µM; top dose inferred
Experimental: (§1)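 Human cancer cell lines in 384-well plates, medium with 10% serum, drug for 72 h over a 256-fold dose range (nine 2-fold or five 4-fold steps up to the top dose). Adherent lines were fixed and stained with the nucleic acid dye Syto60, suspension lines read with resazurin; signal relative to control wells, capped at 0 and 100%. One two-parameter sigmoid per drug and line, fitted in a mixed model over all curves with the slope shared within a line.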

QL-X-138 = compound: C=CC(=O)Nc1cc(-n2c(=O)ccc3cnc4ccc(-c5cn[nH]c5)cc4c32)ccc1C [QL-X-138]; conditions: top dose 10.24 µM; top dose inferred
Experimental: as §1

GSK269962A = compound: CCn1c(-c2nonc2N)nc2cnc(Oc3cccc(NC(=O)c4ccc(OCCN5CCOCC5)cc4)c3)cc21 [GSK269962A]; conditions: top dose 5 µM; screen: GDSC drug entry 1192; top dose inferred
Experimental: as §1

MPS-1-IN-1 = compound: COc1cc(N2CCC(O)CC2)ccc1Nc1cc(Nc2ccccc2S(=O)(=O)C(C)C)c2cc[nH]c2n1 [MPS-1-IN-1]; conditions: top dose 20 µM; top dose inferred
Experimental: as §1

(5Z)-7-Oxozeaenol = compound: COc1cc(O)c2c(c1)/C=C/C[C@H](O)[C@H](O)C(=O)/C=C\C[C@H](C)OC2=O [(5Z)-7-Oxozeaenol]; conditions: top dose 10 µM; top dose inferred
Experimental: as §1

CP466722 = compound: COc1cc2ncnc(-n3nc(-c4ccccn4)nc3N)c2cc1OC [CP466722]; conditions: top dose 16 µM; top dose inferred
Experimental: as §1

Zibotentan = compound: COc1nc(C)cnc1NS(=O)(=O)c1cccnc1-c1ccc(-c2nnco2)cc1 [Zibotentan]; conditions: top dose 20 µM; top dose inferred
Experimental: as §1

ABT-888 = compound: C[C@]1(c2nc3c(C(N)=O)cccc3[nH]2)CCCN1 [ABT-888]; conditions: top dose 5 µM; top dose inferred
Experimental: as §1

ABT-869 = compound: Cc1ccc(F)c(NC(=O)Nc2ccc(-c3cccc4[nH]nc(N)c34)cc2)c1 [ABT-869]; conditions: top dose 1.024 µM; top dose inferred
Experimental: as §1

CHIR-99021 = compound: Cc1cnc(-c2cnc(NCCNc3ccc(C#N)cn3)nc2-c2ccc(Cl)cc2Cl)[nH]1 [CHIR-99021]
Experimental: as §1

KU-55933 = compound: O=c1cc(-c2cccc3c2Sc2ccccc2S3)oc(N2CCOCC2)c1 [KU-55933]; conditions: top dose 10 µM
Experimental: as §1

[1] = top dose 2.56 µM, screen: GDSC drug entry 154
[2] = top dose 10 µM, screen: GDSC drug entry 1241, top dose inferred

Row | Cell Line | AUC (Thapsigargin) | IC50 (Thapsigargin) [µM] | AUC (QL-X-138) | IC50 (QL-X-138) [µM] | AUC (GSK269962A) | IC50 (GSK269962A) [µM] | AUC (MPS-1-IN-1) | IC50 (MPS-1-IN-1) [µM] | AUC ((5Z)-7-Oxozeaenol) | IC50 ((5Z)-7-Oxozeaenol) [µM] | AUC (CP466722) | IC50 (CP466722) [µM] | AUC (Zibotentan) | IC50 (Zibotentan) [µM] | AUC (ABT-888) | IC50 (ABT-888) [µM] | AUC (ABT-869) | IC50 (ABT-869) [µM] | AUC (CHIR-99021; [1]) | IC50 (CHIR-99021; [1]) [µM] | AUC (CHIR-99021; [2]) | IC50 (CHIR-99021; [2]) [µM] | AUC (KU-55933) | IC50 (KU-55933) [µM]
1 | OVCAR-5 (ovary, adherent) | 0.14 | < 0.002 | 0.823 | 7.74 | 0.885 | > 5 | 0.95 | > 20 | 0.481 | 0.549 | 0.841 | 14.6 | 0.981 | > 20 | 0.976 | > 5 | 0.953 | > 1.02 | 0.981 | > 2.56 | 0.929 | > 10 | 0.981 | > 10
2 | OVCAR-8 (ovary, adherent) | 0.362 | 0.014 | 0.778 | 3.7 | 0.903 | > 5 | 0.857 | 13.7 | 0.677 | 1.83 | 0.827 | 8.43 | 0.98 | > 20 | 0.963 | > 5 | 0.987 | > 1.02 | 0.981 | > 2.56 | 0.988 | > 10 | 0.962 | > 10
3 | P12-ICHIKAWA (T-cell lymphoblastic leukaemia, suspension) | 0.396 | 0.0178 | 0.603 | 1.15 | 0.972 | > 5 | 0.854 | 10.5 | 0.828 | 4.37 | 0.601 | 1.77 | 0.994 | > 20 | 0.99 | > 5 | 0.993 | > 1.02 | 0.994 | > 2.56 | 0.994 | > 10 | 0.987 | > 10
4 | PCI-4B (head and neck, adherent) | 0.176 | 0.0036 | 0.571 | 0.988 | 0.912 | > 5 | 0.875 | 17.8 | 0.606 | 1.2 | 0.795 | 7.01 | 0.987 | > 20 | 0.974 | > 5 | 0.987 | > 1.02 | 0.986 | > 2.56 | 0.979 | > 10 | 0.928 | > 10
5 | SF295 (glioma, adherent) | 0.169 | 0.00284 | 0.781 | 4.61 | 0.819 | 3.13 | 0.944 | > 20 | 0.752 | 3.56 | 0.829 | 11 | 0.984 | > 20 | 0.981 | > 5 | 0.975 | > 1.02 | 0.965 | > 2.56 | 0.928 | > 10 | 0.949 | > 10
6 | SISO (cervix, adherent) | 0.215 | 0.00489 | 0.76 | 3.46 | 0.935 | > 5 | 0.884 | > 20 | 0.658 | 1.68 | 0.918 | > 16 | 0.988 | > 20 | 0.988 | > 5 | 0.98 | > 1.02 | 0.983 | > 2.56 | 0.973 | > 10 | 0.959 | > 10
